Target: T1, B7-H4 IgV-huIgG1 (human)
T1 construct: It starts at Met 1 of B7-H4, so it includes the N-terminal leader; It is the IgV part of human B7-H4 fused to a human IgG1 Fc; also called human B7-H4 protein
Assay: SPR; antibody captured on anti-human Fab, B7-H4 IgV-huIgG1 flowed at 0-300 nM; 1:1 model
Procedure: Briefly, anti-human Fab antibody was immobilized on a carboxyl-derivatized SPR chip surface, and anti-B7-H4 antibodies were captured on the resulting surface at 5 ug/ml for 30 seconds. B7-H4 IgV-huIgG1 at various concentrations (0 nM, 3.7 nM, 11.1 nM, 33.3 nM, 100 nM, and 300 nM) was then flowed over the surface and allowed to bind to the anti-B7-H4 antibodies during the association phase, followed by a buffer wash during the dissociation phase.
Thus there is no impact of the glycosylation on binding.

B7-H4 IgV-huIgG1, sequence (chain, as listed by the source limits assumed): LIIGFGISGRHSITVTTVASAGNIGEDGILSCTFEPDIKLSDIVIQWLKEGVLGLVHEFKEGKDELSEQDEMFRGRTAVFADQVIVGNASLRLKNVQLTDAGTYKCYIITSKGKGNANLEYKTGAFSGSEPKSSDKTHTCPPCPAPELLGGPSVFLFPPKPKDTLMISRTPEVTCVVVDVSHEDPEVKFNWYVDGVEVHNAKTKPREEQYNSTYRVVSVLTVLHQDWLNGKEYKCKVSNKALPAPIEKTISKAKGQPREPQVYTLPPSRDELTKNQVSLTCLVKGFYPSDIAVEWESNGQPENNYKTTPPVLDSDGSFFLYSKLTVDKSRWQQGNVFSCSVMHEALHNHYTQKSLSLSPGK

binding result | Binder
binds | afucosylated 20502 antibody (antibody, human IgG1, kappa, Fc glycan lacks fucose (afucosylated; made in CHO-y cells), Human IgG1/kappa anti-B7-H4 antibody; it differs only in lacking fucose on the Fc glycan; also called Ab-A) heavy: QLQLQESGPGLVKPSETLSLTCTVSGGSIKSGSYYWGWIRQPPGKGLEWIGNIYYSGSTYYNPSLRSRVTISVDTSKNQFSLKLSSVTAADTAVYYCAREGSYPNQFDPWGQGTLVTVSS[human IgG1 constant region left out here] light: EIVMTQSPATLSVSPGERATLSCRASQSVSSNLAWYQQKPGQAPRLLIYGASTRATGIPARFSGSGSGTEFTLTISSLQSEDFAVYYCQQYHSFPFTFGGGTKVEIKRTVAAPSVFIFPPSDEQLKSGTASVVCLLNNFYPREAKVQWKVDNALQSGNSQESVTEQDSKDSTYSLSSTLTLSKADYEKHKVYACEVTHQGLSSPVTKSFNRGEC
binds | fucosylated 20502 antibody (antibody, human IgG1, kappa, normally fucosylated Fc glycan (made in CHO-x cells), Human IgG1/kappa anti-B7-H4 antibody, normally fucosylated; also called Ab-F) heavy: QLQLQESGPGLVKPSETLSLTCTVSGGSIKSGSYYWGWIRQPPGKGLEWIGNIYYSGSTYYNPSLRSRVTISVDTSKNQFSLKLSSVTAADTAVYYCAREGSYPNQFDPWGQGTLVTVSS[human IgG1 constant region left out here] light: EIVMTQSPATLSVSPGERATLSCRASQSVSSNLAWYQQKPGQAPRLLIYGASTRATGIPARFSGSGSGTEFTLTISSLQSEDFAVYYCQQYHSFPFTFGGGTKVEIKRTVAAPSVFIFPPSDEQLKSGTASVVCLLNNFYPREAKVQWKVDNALQSGNSQESVTEQDSKDSTYSLSSTLTLSKADYEKHKVYACEVTHQGLSSPVTKSFNRGEC

— patent US20210332137A1 (Five Prime, published 2021)
